The results in this text go back to PMC9816411, “Host-derived chimeric peptides clear the causative bacteria and augment host innate immunity during infection: A case study of HLB in citrus and fire blight in apple” (Frontiers in Plant Science, 2022).

Structures are written as SMILES.

This assay deals with E. coli BL21. The following applies: E. coli BL21, 5 × 10^5 cfu, 24 h with peptide. From the text: . The bioluminescence assay ([Paciello et al., 2013]) helps measure the number of viable bacterial cells in a culture based on the quantitation of the ATP present. It should be noted that ATP is present in live (metabolically active) cells, but not in dead cells. Bactericidal activity was expressed in terms of IC50 and IC99–MIC. Table 2 also includes the IC50 and IC99–MIC of the single units A–E and those of the equimolar mixtures of A (11P-1) and C (11P-3). Chimeras AC and CD were the most promising antibacterial agents. […] We also measured bacterial cell lysis by the different peptides using the NanoLuc luciferase assay. For this assay, E. coli BL21 (pACYC184-nLuc) was treated with 10 µM peptides and the luciferase activity was monitored in the supernatant at 15 min and at 1 h post-treatment. […] The measured luciferase activity is proportional to the number of lysed bacterial cells. […] After incubation with peptides and determining the ODs, the bacterial cultures in polystyrene plates were carefully resuspended to homogeneity by shaking in a plate reader incubator for 5 min at 100 rpm. […] Bioluminescence was measured using a plate reader (Synergy HTX; BioTek). […]

Broadly, the IC50 is the midpoint of a concentration-inhibition curve. On to `CC(C)C[C@@H]1NC(=O)[C@H](CCCNC(=N)N)NC(=O)[C@H](CCCNC(=N)N)NC(=O)[C@@H](NC(=O)[C@@H](N)CCCCN)CSSC[C@@H](C(=O)N[C@@H](CCCNC(=N)N)C(=O)NCC(=O)N[C@@H](CCCNC(=N)N)C(=O)N[C@@H](CCC(N)=O)C(=O)O)NC(=O)[C@H](Cc2ccc(O)cc2)NC(=O)[C@H]([C@@H](C)O)NC(=O)[C@H](C(C)C)NC(=O)[C@@H]2CSSC[C@H](NC1=O)C(=O)N[C@@H](Cc1ccc(O)cc1)C(=O)N[C@@H](CCCCN)C(=O)N[C@@H](CCC(N)=O)C(=O)N[C@@H](CCCNC(=N)N)C(=O)N2` [L19GA], for which the IC50 (dose–response (bioluminescence vs. peptide concentration) fitted to Hill's equation) is 1490 ± 220 nM. Further, for the setting “dose–response fitted to Hill's equation”, the “IC99 (~MIC)” value was 1.88 ± 0.29 µM.
